According to publication PMC6451091:
The list shows a part of the results. For part of these data: At the low end of the ranking the order means little. For part of these data: Measured with an extract: partners may take part in the binding.

Key:
Details in all cases: 20 mM HEPES pH 7.9, 100 mM NaCl, 1 mM DTT, 0.2 mg/mL BSA, 0.02% Triton X-100, 2% milk, 0.4 mg/mL salmon testes DNA; 1 h; temperature not stated; high values mean tight binding; double strand, one strand shown; sequences stand for … in GCCTAGCAC…GTGCTAGGTCTTGATTCGCTTGACGCTGCTG
PU.1 (IVT) = PU.1 (IVT) (UniProt P17947); assay: protein-binding microarray (PBM)
[1] = target: PU.1 (endogenous, THP-1 nuclear extract) (UniProt P17947); assay: nuclear extract protein-binding microarray (nextPBM)
[2] = target: T1, FLI1 (endogenous, THP-1 nuclear extract) (UniProt Q01543); assay: as above
T1 sequence: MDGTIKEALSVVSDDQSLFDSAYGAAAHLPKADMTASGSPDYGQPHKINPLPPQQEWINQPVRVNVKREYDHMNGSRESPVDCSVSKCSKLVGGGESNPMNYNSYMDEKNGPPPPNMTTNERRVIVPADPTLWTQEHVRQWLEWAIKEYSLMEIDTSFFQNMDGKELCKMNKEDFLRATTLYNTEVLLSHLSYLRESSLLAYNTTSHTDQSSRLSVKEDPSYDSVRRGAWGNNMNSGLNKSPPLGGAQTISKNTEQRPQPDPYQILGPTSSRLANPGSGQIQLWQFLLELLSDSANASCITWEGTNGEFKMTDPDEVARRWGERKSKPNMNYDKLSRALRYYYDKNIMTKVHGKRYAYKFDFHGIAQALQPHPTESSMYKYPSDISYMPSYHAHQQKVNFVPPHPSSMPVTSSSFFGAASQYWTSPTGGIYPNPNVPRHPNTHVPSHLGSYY

Sequence	binding signal (PU.1 (IVT))	binding signal [1]	binding signal [2]
CAAAAAGGGCAGTGGATGCT	0.235 z-score	-0.0128 z-score	0.175 z-score
CGAAGGGGGAAGTGCTAAAC	5.21 z-score	4.82 z-score	2.32 z-score
GAAAAAAGGAAGTCAAATTG	5.97 z-score	5.67 z-score	2.6 z-score
AAAAGAAGGAAGTGAGAAAT	5.17 z-score	5.66 z-score	2.4 z-score
CAAATTAGGAACTGATGCGG	2.14 z-score	2.06 z-score	0.517 z-score
AAGAACAGGAAGTGCAAGTT	5.57 z-score	6.26 z-score	4.94 z-score
AAAAAGGGGAAGCCAGAAAT	5.47 z-score	6.11 z-score	2.38 z-score
GAAGGGAGGAAGTGCGTGCT	4.01 z-score	3.54 z-score	2.75 z-score
AATATGGGGAAGTGGAACAT	5.72 z-score	5.89 z-score	1.78 z-score
CAAAAAGGTAAGTGGATGCT	0.987 z-score	0.259 z-score	0.535 z-score
GTGGAGGGGAAGTGATCTCG	3.73 z-score	3.91 z-score	2.25 z-score
GAAATGGGGAAGTCACAGAG	6.31 z-score	6.42 z-score	2.05 z-score
CAGAAAAGGAAGTGGGGGTG	3.51 z-score	3.66 z-score	2.75 z-score
GGGAGGAGGAAGTGGGGAGT	4.26 z-score	4.47 z-score	2.92 z-score
CAAACGAGGAACTGATGCGG	2.12 z-score	2.43 z-score	0.546 z-score
AGAAAAAGGAAGTGAACACT	5.74 z-score	6.03 z-score	2.93 z-score
GAGGGGAGGAAGTGAGGAGG	2.67 z-score	2.73 z-score	2.42 z-score
AAAAAAAGGAAGTCTGTTTT	6.43 z-score	5.85 z-score	2.55 z-score
CTAGGAAGGAAGTGGTTAAG	2.14 z-score	2.26 z-score	2.32 z-score
CAGAAAAGGAAGTATATGGG	4 z-score	3.33 z-score	2.28 z-score
TGAAAGAGGAATTGCAACCA	2.04 z-score	2.06 z-score	0.961 z-score
